The text below walks through data of US20230021880A1, “Cladribine regimen for treating progressive forms of Multiple Sclerosis” (Merck Patent GmbH, priority 2017, published 2023).

The nature of data set [1]: clinical. The following applies: human, in vivo.
Data set [2] deals with patients with RRMS. In words: ONWARD study: Cladribine tablets 3.5 mg/kg added on to IFN-β, RRMS patients. In kind it is in vivo, human. The text has this:
(§1) A supportive study in patients treated with Cladribine as an add-on to interferon-beta vs. placebo+interferon-beta also included a limited number of patients with secondary progressive MS (26 patients). […] There was no difference in annualized relapse rate between patients with relapsing-remitting MS and patients with secondary progressive MS with relapses.
(§2) Patients aged 18-65 years were eligible to enter the ONWARD study if they fulfilled the following criteria. • a diagnosis of RRMS or SPMS with relapses (2005 McDonald criteria) • treatment with IFN-β for ≥48 consecutive weeks before screening, with ≥1 MS relapse during that period • clinical stability (other than relapses) during the 28 days before screening • an Expanded Disability Status Scale. (EDSS) score of 1.0-5.5 • normal hematological parameters within 28 days of baseline (Day 1 of randomization), defined as: platelets, 140-450×10^3/μL; absolute neutrophil count, 2.03-8.36×10^3/μL, absolute lymphocyte count, 1.02-3.36×10^3/μL; white blood cell count, 4.1-123×10^3/μL; haemoglobin, 11.6-16.2 g/dL • Switching from one IFN-β therapy to another was permitted in the 48 weeks before screening if the patient had been on a stable regimen of the current IFN-β≥3 months prior to screening. • Patients were excluded if they bad an infectious or immune-compromising disease, had been previously treated with an immunosuppressive or cytotoxic therapy, or if they were pregnant, breastfeeding or refused to use contraception during the study. • In the study, a dose of Cladribine tablets of 3.5 mg/kg, added to existing IFN-β therapy, were applied. • All analyses were post-hoc and not pre-specified, no multiplicity adjustments were done to the resulting p values. All comparisons where the p value was less than 0.05 by statistical testing should be regarded as nominally significant.
The ONWARD study confirmed the safety and tolerability of Cladribine tablets (3.5 mg/kg) administered as an add on to interferon-β (IFN-β) therapy as a primary endpoint in patients who experienced at least, one relapse on IFN-β. […] The inclusion of patients with SPMS in ONWARD provided an opportunity to confirm the efficacy of treatment with Cladribine tablets 3.5 mg/kg vs placebo added on to IFN-β in these patients. The objective was to confirm the effect of Cladribine tablets 3.5 mg/kg in patterns with SPMS or RRMS in the ONWARD study.

In data set [3] the test system is mammalian cells. As to the kind of experiment: Clastogenicity (chromosomal damage) in vitro. In kind it is cell-based. As to the method:
Cladribine is incorporated into DNA strands and inhibits DNA synthesis and repair. […] In vivo clastogenicity in mice was detected at 10 mg/kg, which was the lowest dose tested.

For data set [4], the system named is male mice. As to the kind of experiment: Male mouse fertility study. In kind it is in vivo.
For data set [5], the system named is patients with SPMS. As to the kind of experiment: ONWARD study: Cladribine tablets 3.5 mg/kg added on to IFN-β, SPMS patients. In kind it is in vivo, human.
Source text: as §1, §2
The ONWARD study confirmed the safety and tolerability of Cladribine tablets (3.5 mg/kg) administered as an add on to interferon-β (IFN-β) therapy as a primary endpoint in patients who experienced at least, one relapse on IFN-β. […]

Data set [6] deals with CYP1A2.
In data set [7] the test system is patients with RRMS. In words: CLARITY and CLARITY EXT analysis. In kind it is in vivo, human. The settings on record: after 2 short treatment courses, 3.5 mg/kg.
The test system of data set [8] is rabbits. In words: Reproduction toxicity. It is filed as in vivo.
The nature of data set [9]: Cladribine pharmacokinetics following oral administration.
Data set [10] in a line: Drug interaction study with pantoprazole in MS patients. It is filed as in vivo, human. The settings on record: 10 mg oral.
The subject of data set [11] is mice. In words: Long-term 22-month carcinogenicity study, subcutaneous. In kind it is in vivo.
In data set [12] the test system is mice. The following applies: pregnant mice.
The mark [13] stands for this setting: RRMS, Cladribine tablets 3.5 mg/kg + IFN-β.
The mark [14] stands for this setting: SPMS, Cladribine tablets 3.5 mg/kg + IFN-β.

The structures appear in SMILES notation.

As usually defined, the half-life is the time needed for the level to fall by half in the phase considered. The low end stands for rapid decline, the high end for slow decline. For `Nc1nc(Cl)nc2c1ncn2[C@H]1C[C@H](O)[C@@H](CO)O1` [Cladribine, 2-chloro-2′deoxyadenosine], in [1], the CL renal is 370 mL/min and the half-life is ~24 h. For the same molecule, the “less likely to have a qualifying relapse than placebo” value in data set [2] (RRMS patients) is 50%. Besides, the annualized relapse rate in data set [2] (RRMS, Cladribine 3.5 mg/kg + IFN-β) is given as 0.15. In data set [2] (setting [13]), the “Mean number of T2 lesions per patient per scan, Mean (SD)” value is 0.58 (1.40) and the “Most number of new T1 Gd+ lesions per patient per scan, Mean (SD)” value is on record as 0.05 (0.31). Moreover, the “clastogenic concentration relative to the expected clinical Cmax” value in data set [3] is given as 17 fold. The testicular effects result in data set [4] (male mice) was “reduced testicular weights and increased numbers of non-mottle sperm”. The “fertility of male mice” value in data set [4] (mouse, in vivo) is reported as “did not affect the fertility of male mice”. In data set [5] (SPMS patients), the “less likely to have a qualifying relapse than placebo” value is recorded as 89%. Besides, in data set [5] (setting [14]), the “Mean number of T2 lesions per patient per scan, Mean (SD)” value is listed as 0.29 (0.52) and the “Most number of new T1 Gd+ lesions per patient per scan, Mean (SD)” value was 0.13 (0.55). The “inductive effect on CYP1A2” value in data set [6] is recorded as “no clinically meaningful inductive effect”. Also, the “additional time off therapy for which efficacy in reducing relapses and slowing EDSS progression is maintained” value in data set [7] is “at least 2 years”. The teratogenicity result in data set [8] was “teratogenic”. For the same molecule, in [9] (in vivo), the “accumulation of concentration in plasma after repeated dosing” value was “No significant accumulation”. Besides, the “Cmax and AUC increase with dose” value in data set [9] (oral dose range 3 to 20 mg) is “dose-proportional”. In addition, in data set [10], the “bioavailability when co-administered with pantoprazole” value is “not altered”. Moreover, in data set [11] (10 mg/kg in mice), the “exposure multiple vs expected human AUC at maximum daily dose of 20 mg” value is recorded as “approximately 16 fold”. For the same molecule, the tumor incidence entry in data set [11] (22-month, subcutaneous, highest dose 10 mg/kg, mice) is listed as “No increased incidence of lymphoproliferative disorders or other tumor types”. For the same molecule, the embryo lethality result in data set [12] was “embryo lethal”.
